# In PubChem BioAssay AID1460 (National Center for Advancing Translational Sciences (NCATS), 2008):
# Values joined by “and” are separate entries in the source; they are usually repeats but may differ in a detail not shown here. Equal entries are not always repeated. The campaign covered roughly 270,000 compounds. About 5,800 (2.1%) were called active. Inconclusive means that the source gave no clear call. Such entries were picked first, then a sample of the others. The call rests on the fitted dose curve; in most records, active means well fitted inhibition curve with a large enough effect; inconclusive means small, poorly fitted or top-dose-only effect; inactive means flat fitted curve, though single readings scatter. A potency beside an inconclusive call is a rough fit, not a confirmed value.
# Molecular target: Microtubule-associated protein tau (Homo sapiens) (UniProt P10636)
# Sequence of UniProt P10636 (P10636 whole entry, looked up): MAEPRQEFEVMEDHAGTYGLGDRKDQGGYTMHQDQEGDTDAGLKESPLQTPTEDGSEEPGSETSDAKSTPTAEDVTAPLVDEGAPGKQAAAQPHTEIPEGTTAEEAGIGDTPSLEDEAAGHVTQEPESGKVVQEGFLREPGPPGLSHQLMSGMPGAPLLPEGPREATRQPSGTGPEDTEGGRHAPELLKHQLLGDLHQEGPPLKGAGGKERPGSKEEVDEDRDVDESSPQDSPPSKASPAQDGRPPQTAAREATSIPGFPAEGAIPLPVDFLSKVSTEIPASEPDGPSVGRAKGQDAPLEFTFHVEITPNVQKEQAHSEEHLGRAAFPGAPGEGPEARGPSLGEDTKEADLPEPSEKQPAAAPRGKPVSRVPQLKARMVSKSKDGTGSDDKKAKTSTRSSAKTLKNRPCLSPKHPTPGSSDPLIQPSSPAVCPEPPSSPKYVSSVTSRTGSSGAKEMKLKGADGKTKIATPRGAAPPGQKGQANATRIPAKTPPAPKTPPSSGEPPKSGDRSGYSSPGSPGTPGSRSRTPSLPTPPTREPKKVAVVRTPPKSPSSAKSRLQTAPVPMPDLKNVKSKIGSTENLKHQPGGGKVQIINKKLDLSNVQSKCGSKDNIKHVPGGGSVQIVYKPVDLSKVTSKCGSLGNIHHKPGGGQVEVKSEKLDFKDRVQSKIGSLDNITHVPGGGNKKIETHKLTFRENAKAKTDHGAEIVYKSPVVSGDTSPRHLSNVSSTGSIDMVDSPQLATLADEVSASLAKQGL
# Test: qHTS for Inhibitors of Tau Fibril Formation, Thioflavin T Binding; further: nearly all actives have a fitted effect of over 55% in size
# Conditions: recombinant tau K18 P301L (four-repeat tau fragment), heparin-induced fibrillization, ThT fluorescence; series mostly up to 57.4 µM
# In short: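 Heparin-induced fibrillization of the P301L-mutant K18 repeat-domain fragment of human tau was followed by ThT binding in quantitative high-throughput format.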
# Potency means the concentration at half of the fitted maximal effect; tags describe the fitted curve by direction and shape.
row,Compound,Potency
1,CCOC(=O)CSc1nc2sc3c(c2c(=O)n1Cc1ccccc1)CCC(C(C)(C)C)C3 (stereo not given),inactive
2,CCN1C(=O)/C(=C/C=C2/Sc3ccccc3N2CCO)SC1=S,"inconclusive: 0.708 µM [inhibitor, full curve]"
3,CCCOc1ccccc1N/C(=N/c1nc(C)cc(C)n1)NC(=O)COc1ccc(OC)cc1,"inconclusive: 15.8 µM [inhibitor, single point]"
4,CCOC(=O)c1c(-c2ccccc2Cl)csc1NC(=O)CSc1nc(C)cc(=O)[nH]1,inactive
5,O=C(O)c1ccccc1C(=O)Nc1ccc(Br)c(C(F)(F)F)c1,inactive
6,COc1ccc2nc(S(=O)Cc3ncc(C)c(OC)c3C)[nH]c2c1 (stereo not given),active: 22.4 µM and active: 31.6 µM
7,COc1ccc(Cl)cc1-n1c(N)c(C(N)=O)sc1=S,inactive
8,CCOC(=O)N1CCN(S(=O)(=O)c2ccc(OCC(=O)OC)c(C)c2)CC1,inactive
9,COc1ccc(-c2cc(C(F)(F)F)nc(SCC(=O)N(C)Cc3ccccc3)n2)cc1OC,"inconclusive: 7.94 µM [inhibitor, partial curve, poor fit]"
10,Cc1c(CNCc2ccc(OC(C)C)cc2)c(C(=O)O)c(C)n1Cc1ccc(Cl)cc1,inactive
11,COc1ccc(N(C(=O)c2ccccc2F)S(=O)(=O)c2ccc3c(c2)n(C)c(=O)n3C)cc1,inactive
12,Cc1ccc(/C=C2\SC(N)=NC2=O)s1,"inconclusive: 11.2 µM [inhibitor, partial curve, poor fit]"
13,Cc1cccc(N/N=C/c2ccccc2O)c1,"inconclusive: 15.8 µM [inhibitor, partial curve]"
14,Cc1ccc(OCC(=O)N/N=C\c2c(C)n(C)c3ccccc23)c([N+](=O)[O-])c1,"inconclusive: 25.1 µM [inhibitor, partial curve, poor fit]"
15,COCCNC(=O)/C(C#N)=C/c1ccc(-c2ccc(OC)cc2[N+](=O)[O-])o1,"inconclusive: 7.08 µM [inhibitor, partial curve]"
16,Cc1nc2c(O)cccc2c(=O)[nH]1,inactive
17,COc1cccc(/C=N/NC(=O)c2nc(-c3ccccc3)cc(-c3ccccc3)n2)c1O,"inconclusive: 2.51 µM [inhibitor, full curve, poor fit]"
18,O=C(c1cc2ccc3cccnc3c2[nH]1)N1CCN(c2cccc(C(F)(F)F)c2)CC1,"inconclusive: 10 µM [inhibitor, partial curve]"
19,CCc1cccc2c(/C=N/NC(=O)c3cccc(S(=O)(=O)Nc4ccccc4Cl)c3)c[nH]c12,active: 14.1 µM
20,CC(C)(C)N(Cc1ccccc1)C(=O)CCc1ccccc1,inactive
21,CCN(CC)c1ccc(/C=N/Nc2nc(C)cc(=O)[nH]2)cc1,"inconclusive: 17.8 µM [inhibitor, partial curve]"
22,COc1ccc(NC(=O)CN2CCCN(S(=O)(=O)c3ccc(Br)cc3)CC2)c(OC)c1,"inconclusive: 5.01 µM [inhibitor, full curve]"
23,O=c1[nH]c2cc(Cl)c(Cl)cc2[nH]c1=O,"inconclusive: 4.47 µM [inhibitor, partial curve, poor fit] and inconclusive: 282 nM [inhibitor, full curve] and inconclusive: 8.91 µM [inhibitor, partial curve]"
24,CC(=O)Nc1ccc(S(=O)(=O)NNC(=O)COc2ccc(C(C)(C)C)cc2)cc1,inactive

row,Compound,Potency
1,COc1ccc(-n2nnnc2SCc2nc3ccccc3s2)cc1,"inconclusive: 12.6 µM [inhibitor, partial curve]"
2,COc1ccc(-c2nc3c4cnn(-c5ccccc5F)c4ncn3n2)cc1,"inconclusive: 1.78 µM [inhibitor, full curve]"
3,COc1ccc(NC(=O)C(c2ccc(C)cc2)N(C)C(=O)CC2NC(=O)NC2=O)cc1 (stereo not given),inactive
4,Cc1ccc(NC(=O)c2cn(-c3cccc(C)n3)cn2)cc1,"inconclusive: 10 µM [inhibitor, partial curve]"
5,O=C(Nc1cccc(-c2nc3ccccc3o2)c1)c1cc([N+](=O)[O-])ccc1N1CCOCC1,inactive
6,CCn1c(C)nc2cc(C(=O)NNC(=S)NC(=O)c3ccccc3)ccc21,"inconclusive: 14.1 µM [inhibitor, partial curve]"
7,Cc1ccc(Sc2ccc([N+](=O)[O-])cc2[N+](=O)[O-])nc1,"inconclusive: 17.8 µM [inhibitor, single point]"
8,CCN(Cc1ccccc1)C(=O)Cn1c(=O)n(-c2ccc(F)c(Cl)c2)c(=O)c2sc3ccccc3c21,inactive
9,CCC(C)(C)n1nnnc1C(c1cc2ccc(OC)cc2[nH]c1=O)N1CCc2ccccc21 (stereo not given),"inconclusive: 15.8 µM [inhibitor, partial curve]"
10,COc1ccc(N2CCN(S(=O)(=O)c3csc(C(N)=O)c3)CC2)cc1,inactive
11,CCOc1ccc(NC(=O)Nc2nnc(CC)s2)cc1,"inconclusive: 14.1 µM [inhibitor, partial curve]"
12,CCCCNC(=O)CS(=O)Cc1nc(-c2cccc(Cl)c2)oc1C (stereo not given),"inconclusive: 15.8 µM [inhibitor, partial curve]"
13,CCOC(=O)c1sc(NC(=O)CSc2nc3c(cc2C#N)CCCCC3)c(C#N)c1C,inactive
14,CCC(C)Nc1nc(N)c([N+](=O)[O-])c(Nc2ccccc2OC)n1 (stereo not given),"inconclusive: 28.2 µM [inhibitor, single point]"
15,NNc1nc2c(Cl)cccc2s1,active: 22.4 µM
16,CN(C)CCCN(C(=O)CCOc1ccccc1)c1nc2c(F)cccc2s1,"inconclusive: 22.4 µM [activator, single point]"
17,Cc1ccc(-n2c(Cl)c(Cl)nc(Cl)c2=O)cc1,"inconclusive: 2 µM [inhibitor, partial curve]"
18,O=C(CSc1nc2ccccc2n1-c1ccccc1)Nc1ncc(Cl)cc1Cl,"inconclusive: 20 µM [inhibitor, partial curve, poor fit]"
19,Cn1cc(P(=O)(N2CCOCC2)N2CCOCC2)cc1P(=S)(N1CCOCC1)N1CCOCC1,inactive
20,O=c1[nH]c(-c2ccccc2Cl)nc2c1sc(=S)n2-c1ccccc1,inactive
21,O=C(NC(=S)NCCSc1ccccc1)c1cccnc1,inactive
22,O=C1N=c2ccccc2=C1c1sc(=O)[nH]c1O,"inconclusive: 14.1 µM [inhibitor, partial curve]"
23,NC(CSCC(=O)O)C(=O)O (stereo not given),inactive
24,FC(F)(F)c1cc(Cl)c2nc(-c3ccccc3)cn2c1,"inconclusive: 25.1 µM [inhibitor, partial curve]"

row,Compound,Potency
1,COc1ccc(C(=O)N/C(=C\c2cc(OC)c(OC)cc2[N+](=O)[O-])C(=O)NCC(=O)O)cc1,"inconclusive: 15.8 µM [inhibitor, single point]"
2,Cc1ccc(-c2nn(CC(=O)Nc3cccc(C(F)(F)F)c3)c(=O)c3ccccc23)cc1,"inconclusive: 15.8 µM [inhibitor, partial curve, poor fit]"
3,Cc1ccc(-c2nc3ccccc3[nH]2)cc1NC(=O)COc1cccc(C)c1C,"inconclusive: 0.178 µM [inhibitor, full curve, poor fit]"
4,CCOC(=O)c1sc(NC(=O)c2cccc(S(=O)(=O)N3CCN(C)CC3)c2)cc1C,inactive
5,COc1cc(CNc2ccc3[nH]c(=O)[nH]c3c2)cc(Cl)c1OCc1ccccc1F,"inconclusive: 0.708 µM [inhibitor, full curve]"
6,Cc1ccc(-c2nonc2NC(=O)c2ccco2)cc1C,"inconclusive: 2 µM [inhibitor, full curve]"
7,O=C(c1[nH]ncc1-c1cccc(Br)c1)C1CO1 (stereo not given),"inconclusive: 14.1 µM [inhibitor, partial curve]"
8,CC(C)C1COc2cc3oc(=O)ccc3cc2O1 (stereo not given),inactive
9,COc1ccccc1N1C(=O)C(Cl)=C(Nc2ccccc2O)C1=O,active: 12.6 µM
10,COC(=O)c1sccc1NC(=O)c1csc2c1CCCC2,"inconclusive: 39.8 µM [inhibitor, single point]"
11,CCOc1ccc2c(=O)c(Oc3ccccc3OCC)coc2c1,"inconclusive: 35.5 µM [inhibitor, single point]"
12,CCOC(=O)c1c(C)n(C(=O)c2ccco2)c(=O)n1C(=O)c1ccco1,"inconclusive: 11.2 µM [inhibitor, partial curve]"
13,COc1ccc(N=c2sc3ccccc3n2C)cc1,"inconclusive: 15.8 µM [inhibitor, partial curve]"
14,Cc1ccc(NC(=O)Cn2c(=O)c(CNc3ccccc3)cc3cc4c(cc32)OCCO4)cc1,inactive
15,CCOC(=O)c1nnc(-c2ccccc2)nc1Sc1c(Cl)cccc1Cl,active: 11.2 µM
16,CNc1ccc(Oc2nc([N+](=O)[O-])nn2C)cc1,"inconclusive: 39.8 µM [inhibitor, single point]"
17,CCCOc1ccc(Br)cc1-c1cc(-c2ccc(Cl)cc2)[nH]c1-c1ccncc1,inactive
18,COc1ccccc1CNC(=O)c1ccc2nc3[nH]c4ccccc4c3nc2c1,"inconclusive: 10 µM [inhibitor, partial curve]"
19,Cc1nn(-c2cccc(Cl)c2)c2c1C(c1ccncc1)C(C#N)=C(N)O2 (stereo not given),"inconclusive: 14.1 µM [inhibitor, partial curve]"
20,Cc1ccc2c(c1)c1ncnc(N3CCN(c4ccccc4)CC3)c1n2C,"inconclusive: 6.31 µM [inhibitor, partial curve]"
21,CCNC(=O)COC(=O)COc1ccc(Cl)cc1C,inactive
22,c1ccc(-c2cc(-c3ccc(N4CCOCC4)cc3)nc3ccccc23)cc1,"inconclusive: 17.8 µM [inhibitor, partial curve]"
